The source gives no read counts; variants with many changes may rest on few reads.
B1: LINE1-mini (parent)
chain: GGCAGAGCUCAACACAGCGUGGCAAAGUGGCUGUGGCUAGACUGCC

Variants of: B1
Experiment: self-cleavage, relative activity (ratio to wild type); higher = more cleavage; in vitro, sequencing; the parent is a self-cleaving ribozyme
Variant GGCAGAGCUCAACCCAGCCUGGCAAACUGGAUGUGGCUAGACUGCC [A14C G19C G27C C31A] has a self-cleavage of 0.01.
With GGCAGAGGUCAACUCAGCGUGGCUAAGUGGCUGUGGCUAGACUGCC [C8G A14U A24U] the self-cleavage was 0.04.
For GGCAGAGCUCAACACGGCGUGGCAAAGUUGCUGUGGCUAGACUACC [A16G G29U G44A], the self-cleavage was 0.12.
Work on GGCGGAGCUUAACACAGCGUGAUAAAGUGGCUGUGGCUCGACUUAC [A4G C10U G22A C23U A39C G44U C45A] yielded a self-cleavage of 0.01.
With GGCAGAGCUCAACACACCGUGGCAAAGUUGCUGUGGCUAGAAUGCC [G17C G29U C42A] the self-cleavage was 0.08.
GGCACAGCUCAACACAGCGUGGCAACGUGGCUGUGGCUAGAUUGCC [G5C A26C C42U] showed a self-cleavage of 0.06.
GUCAGAGCUCAACACAGCGUUGCAAAGUGGCUGUCGCUAAACUGCC [G2U G21U G35C G40A] gave a self-cleavage of 0.02.
Variant GGCAGAGCUCAAGACAGCGUGGCAAAGUGACCGUGGCUAGAAUGCC [C13G G30A U32C C42A] has a self-cleavage of 0.08.
In the case of GGCAGAGCUCAACACCGCGUGGCCAAGUGGCUGUGGCUAGACUUCU [A16C A24C G44U C46U], the self-cleavage is reported as 0.11.
For GGCAGAGCUCAACACAGCGUGGCAAAGUAGUUGUGGCCAGACUGCC [G29A C31U U38C], the self-cleavage was 0.61.
For GGCAGAGCUCGCCACAGCUUGGCAAAGUGGCUGUGGUUAGACUGCC [A11G A12C G19U C37U], the self-cleavage was 0.
Work on GGCAGAGCCAAACACAGCGUGGCAAAGUGGCUCUGGCUAGACUGCC [U9C C10A G33C] yielded a self-cleavage of 0.04.
In the case of AGCAGAGCUGAGCACAGCGUGGCAAAGUGGCUGUGGCUAGACUGCC [G1A C10G A12G], the self-cleavage is reported as 0.01.
GGGAGAGCUGAACACAGCGUGGCAAAGUGGCUGUGGCUAAAAUGCC [C3G C10G G40A C42A] showed a self-cleavage of 0.01.
UGCAGAGCUCAACACAGCGUGACAAAGUGGCUGUGGCAAUACUGCC [G1U G22A U38A G40U] showed a self-cleavage of 0.05.
GGCAGAGAUCAACACAGCGUGACAAAGUGGCUGUGGCUAGACUUCC [C8A G22A G44U] gave a self-cleavage of 0.05.
In the case of UGCAGAGCUCAACACAGCGUGGCAAAGUGGCUGUGGGUAGACUGAC [G1U C37G C45A], the self-cleavage is reported as 0.01.
With GGCAAGGCUCAACACAGAGUGGCAAAAUAGCUGUGGCUAGAGUGCC [G5A A6G C18A G27A G29A C42G] the self-cleavage was 0.19.
Variant GGCAGGGCUCAACACAGCGUGGCAAAGUGGCUUUGGCUCGACUGCC [A6G G33U A39C] has a self-cleavage of 0.06.
In the case of GGCAGAGCUCAACGCAGCGUGGCAAAGUGUGUGUGGCUAGACUGCG [A14G G30U C31G C46G], the self-cleavage is reported as 0.01.
Variant GGCUGCGCUCAACACAGCGUUGCAAAGUGGCUGUGGCUAGACUGCC [A4U A6C G21U] has a self-cleavage of 0.04.
Work on GACAGACCUCAACACAGCGUUACAAAGUGGUUGUGGCUAGACUGCC [G2A G7C G21U G22A C31U] yielded a self-cleavage of 0.53.
With GGCGGAGCUCAACACAGCGGGGCAAAGUGGCUGUGGCUAUACUGCC [A4G U20G G40U] the self-cleavage was 0.17.
GGCAGAGCUCAUCACAGCGUAGCAAAGUGGCUGUGGCUCGACUGCG [A12U G21A A39C C46G] gave a self-cleavage of 0.1.
GGCGGAGCUAAACACAGCGUCGCAAAGUGGCUGUGGCUAGACUGUC [A4G C10A G21C C45U] showed a self-cleavage of 0.03.
GGCAGAGCACAACACAGGGUGGCAAAGUGGCUGUGGCCAGAGUGAC [U9A C18G U38C C42G C45A] showed a self-cleavage of 0.05.
Work on GGCAGAGUUCAACACAGCGUGGCAAAGUGGAUGUGUCUAGACUGCC [C8U C31A G36U] yielded a self-cleavage of 0.45.
Work on GGCUGAGCUAAACACAGCGUGUCAAAGUGGCUGUGGCUAGACUGCC [A4U C10A G22U] yielded a self-cleavage of 0.04.
GGCAGAGCUCACCCCAGCGUGGCAAAGUCGCUGUGGCUAGACUGCC [A12C A14C G29C] gave a self-cleavage of 0.
For GGCAGGGCUGGACCCCGCGUUGCAAAGUGGGUGUGGCUAGACUGCC [A6G C10G A11G A14C A16C G21U C31G], the self-cleavage was 0.
Variant GGCAGAGCUCAACACAGCGUCGCAAUGUUUCUGUGGCUAGACUGCC [G21C A26U G29U G30U] has a self-cleavage of 2.1.
Work on GGUAGAGCUCAACACAUCGUGGCAAAGUGGCUGUGGCUAGACGGCC [C3U G17U U43G] yielded a self-cleavage of 0.02.
GGCAGAGCUAAACACAGCGUGGCAAAGUCGCUGUGGCUAGAUUGCC [C10A G29C C42U] gave a self-cleavage of 0.03.
For GGCAGAGCCCAACAAGGCGUGGCAAAGUGGCUGUGGCUAGAUUGCC [U9C C15A A16G C42U], the self-cleavage was 0.
In the case of GGCAGAGCUCAACACAGCGUGGCUAAUUGGCUGCGGAUAGACUACC [A24U G27U U34C C37A G44A], the self-cleavage is reported as 0.03.
Work on GGCAGAGCUCAACAAAGCGUAGCAAAGUGGCUGUGGCUAGACUUUC [C15A G21A G44U C45U] yielded a self-cleavage of 0.04.
Variant GGCAGAGCUCAACUCAGCGUGGCAAAGUGGCUGUUGGUAGACUCCC [A14U G35U C37G G44C] has a self-cleavage of 0.03.
With GGCAGAGCGCAACACAGCGUGGCAAAGUGGCUGUGUCUAGACUGUC [U9G G36U C45U] the self-cleavage was 0.11.
With GGCAAAGCUCAACACAGCGUGGCAAUGUGGCUGUGGCUAGUCUGCC [G5A A26U A41U] the self-cleavage was 0.11.
GGCAGAGCUCAGCACAGCGUGGCGAAGUGGCCGUGGCUAGACUGCC [A12G A24G U32C] gave a self-cleavage of 0.01.
Work on GACAGAGCUCAACACAGCGUGGCCAAGUGCCUGUGGCUAGACUGCA [G2A A24C G30C C46A] yielded a self-cleavage of 0.11.
Work on GGCAGAGCUCAACACAGCGUGGCAUGGUGGCUGUGGCUAGCCUGCC [A25U A26G A41C] yielded a self-cleavage of 0.02.
With GGCAGAGCUCAACACUGCGUGGCAAAGUGGCUGAGGCUAGGCUGCC [A16U U34A A41G] the self-cleavage was 0.01.
With GGCAGAGCUCAACACAGCGUGGCAAAGUAACCGUGGCUAGACUGCC [G29A G30A U32C] the self-cleavage was 0.77.
Variant GGCAGAGCGCAACACAGCGUGGCGAAGUGGGUGUGGCUAGACUGCC [U9G A24G C31G] has a self-cleavage of 0.03.
For GGCAGAGCUCUACACAGCGUGGCAAAGUGGCUGUAGCUAGAUUGCC [A11U G35A C42U], the self-cleavage was 0.04.
Variant GGCAGAGCUCUUCACAGGGUGGCGAAGUGGCUGUGGCUAGACUGCC [A11U A12U C18G A24G] has a self-cleavage of 0.06.
Work on GGCAGAGCUCAACACAGCGUGGCAGAGUGGCUGUGUCUAAACUGCC [A25G G36U G40A] yielded a self-cleavage of 0.14.
GGCCGAGCUCAACACAGCGAGGCAAAGUGGCUGUGGCUAGACUGCG [A4C U20A C46G] gave a self-cleavage of 0.04.
With GGCAGAUCUCUACACAGCGUGGCAAAGUGGCUGUGGCUAGACUGCU [G7U A11U C46U] the self-cleavage was 0.01.
GGCAGAGCUCGACAAAGAGUGGCAAAGUGGCUGUGCCUAGACUGCC [A11G C15A C18A G36C] showed a self-cleavage of 0.
GGUAGAGCUCAACACAGCGUGACAAAGGGGCUGUGGGUAGUCUGCC [C3U G22A U28G C37G A41U] gave a self-cleavage of 0.02.
Work on GGCAGAACUCAACACAGCGUGGCAAAGUGGCUGUUGCUAUACUGCC [G7A G35U G40U] yielded a self-cleavage of 0.03.
With GGCAGAGCUGAACACAGCGUGGCAAAGUGGGUGUGUCUAGACUGCC [C10G C31G G36U] the self-cleavage was 0.
GGCAGAACUCAACACAGCGUGGCAAUGUGGAUGUGGCUAGAUUGCC [G7A A26U C31A C42U] gave a self-cleavage of 0.02.
With GGAAGAGCUCAACACACCGUGGGAAAGUGGCUGUGGCAAGACUGCA [C3A G17C C23G U38A C46A] the self-cleavage was 0.04.

Reference: the RNAGym collection of RNA variant scans (doi:10.7554/elife.90254)
